From PubChem BioAssay (NCI)
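Protocol summary: plate cells (96-well), add compound at 5 concentrations, incubate 48 h, interpolate endpoints linearly. Abbreviation: GI50, concentration required for 50% inhibition of growth. TGI denotes the concentration required for complete inhibition of growth.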

system: NCI-H322M lung; test: NCI anticancer screen, dose series, 48 h

| Structure (SMILES) | GI50 | TGI |
| --- | --- | --- |
| NS(=O)(=O)c1ccc(N=Nc2c(O)n(CC(=O)Nc3ccccc3)c3ccccc23)cc1 | 2.45 µM | 7.8 µM |
| COc1cccc(-c2c(C#N)c(-c3ccc(Cl)cc3)nc3n[nH]c(-c4ccc(Cl)cc4)c23)c1 | 24 µM | > 100 µM |
| O=C(c1ccc(Cl)cc1)C1[C@H](c2ccc(Br)cc2)[C@@H](c2ccccc2)NC12C(=O)Nc1ccc(Cl)cc12 (stereo partly specified) | 5.36 µM | 11.8 µM |
